Laboratory results taken from PubChem BioAssay (NCI).
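Grown in 96-well plates, cells were treated for 48 hours with each compound at five concentrations. Insufficient inhibition: endpoint recorded as highest concentration tested. Here, GI50 denotes the concentration required for 50% inhibition of growth.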 A number of entries come with more than one value. This list holds those alone. There may be further records. For some of these results: Values given together repeat one measurement in other runs, samples, wells, individuals or studies. Records carry a tag for their origin. The letters are not those of the source and start again with each entry.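 Definition used: TGI = concentration required for complete inhibition of growth.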 For some of these results: Records of one sample usually come from different ranges of test concentrations, not given here; some values may only mark the edge of a range.

Experiments:
Experiment in all cases: DTP human tumour cell line panel, 48 h
NCI-H522 lung = system: NCI-H522 lung
UACC-257 melanoma = system: UACC-257 melanoma
K-562 leukemia = system: K-562 leukemia
NCI-H23 lung = system: NCI-H23 lung
SF-295 CNS = system: SF-295 CNS
HS 578T breast = system: HS 578T breast
MDA-MB-435 = system: MDA-MB-435
HCC-2998 colon = system: HCC-2998 colon
ACHN renal = system: ACHN renal
NCI/ADR-RES ovarian = system: NCI/ADR-RES ovarian
UACC-62 melanoma = system: UACC-62 melanoma
SW-620 colon = system: SW-620 colon
SF-539 CNS = system: SF-539 CNS
MOLT-4 leukemia = system: MOLT-4 leukemia
SK-MEL-28 melanoma = system: SK-MEL-28 melanoma
UO-31 renal = system: UO-31 renal
RXF 393 renal = system: RXF 393 renal
SK-OV-3 ovarian = system: SK-OV-3 ovarian
CCRF-CEM leukemia = system: CCRF-CEM leukemia
SR leukemia = system: SR leukemia
HOP-92 NSCLC = system: HOP-92 NSCLC
HCT-116 colon = system: HCT-116 colon
M14 melanoma = system: M14 melanoma
SN12C renal = system: SN12C renal
COLO 205 colon = system: COLO 205 colon
TK-10 renal = system: TK-10 renal
PC-3 prostate = system: PC-3 prostate
MDA-MB-231 breast = system: MDA-MB-231 breast
OVCAR-4 ovarian = system: OVCAR-4 ovarian
HCT-15 colon = system: HCT-15 colon
OVCAR-3 ovarian = system: OVCAR-3 ovarian
HOP-62 NSCLC = system: HOP-62 NSCLC
OVCAR-8 ovarian = system: OVCAR-8 ovarian
DU-145 prostate = system: DU-145 prostate
MALME-3M melanoma = system: MALME-3M melanoma
SNB-75 CNS = system: SNB-75 CNS
NCI-H226 lung = system: NCI-H226 lung
IGROV1 ovarian = system: IGROV1 ovarian
OVCAR-5 ovarian = system: OVCAR-5 ovarian
LOX IMVI melanoma = system: LOX IMVI melanoma
HT29 colon = system: HT29 colon
SK-MEL-5 melanoma = system: SK-MEL-5 melanoma
SNB-19 CNS = system: SNB-19 CNS
CAKI-1 renal = system: CAKI-1 renal
HL-60(TB) leukemia = system: HL-60(TB) leukemia
786-0 renal = system: 786-0 renal
U251 CNS = system: U251 CNS
SK-MEL-2 melanoma = system: SK-MEL-2 melanoma
BT-549 breast = system: BT-549 breast
NCI-H460 lung = system: NCI-H460 lung
RPMI-8226 leukemia = system: RPMI-8226 leukemia

With `COc1nc(N)c(NC2OC(CO)C(O)C2O)c(=O)[nH]1` (centres undefined) the GI50 (NCI-H522 lung) was > 100 µM [sample A, 1 test] and 3.18 µM [sample B, 1 test].

With `C#CCOCC12C=CC(O1)C1C(=O)N(C)C(=O)C12` (centres undefined) the GI50 (UACC-257 melanoma) was 332 nM [sample A, 1 test] and > 100 µM [sample B, 1 test] and the GI50 (NCI-H522 lung) was 1.78 µM [sample A, 1 test] and > 100 µM [sample B, 1 test].

For `Cc1ccc(C(=O)Nc2ccc(CN3CCN(C)CC3)c(C(F)(F)F)c2)cc1C#Cc1cnc2cccnn12`, the TGI (K-562 leukemia) was 110 nM [sample A, 1 test] and 4.25 µM [sample B, mean of 2 tests].

`CC(=O)C(O)N1C(=O)C=CC1=O` (centres undefined) was tested, and the TGI (NCI-H23 lung) was 25 µM, 32.8 µM, 30.4 µM, 22.9 mM, the TGI (SF-295 CNS) was 4.81 µM, 32.6 µM, 32.3 µM, 7.4 mM and the TGI (HS 578T breast) was 25 µM and 77.3 mM. The TGI (MDA-MB-435) was 25 µM and 20.1 mM, the TGI (HCC-2998 colon) was 25 µM, 32.9 µM, 36.4 µM, 92.9 mM and the TGI (ACHN renal) was > 25 µM, 27.5 µM, 6.73 µM, 22 mM. For the same compound, the TGI (NCI/ADR-RES ovarian) was 25 µM and 33.5 mM, the TGI (UACC-62 melanoma) was 29.7 µM, 32 µM, 16.4 mM and the TGI (SW-620 colon) was > 25 µM, 27.3 µM, 3.02 µM, 23.4 mM. The TGI (UACC-257 melanoma) was 25 µM, 30 µM, 11.2 µM, 21.6 mM, the TGI (SF-539 CNS) was 9.42 µM, 35.9 µM, 2.92 µM, 20.1 mM and the TGI (MOLT-4 leukemia) was > 25 µM, 28.6 µM, 4.15 µM, 23.4 mM. For the same compound, the TGI (SK-MEL-28 melanoma) was 25 µM, 36.5 µM, 3.31 µM, 21.9 mM, the TGI (UO-31 renal) was 11.4 µM, 10.5 µM, 7.23 mM and the TGI (RXF 393 renal) was 6.49 µM and 23.4 mM. For the same compound, the TGI (NCI-H522 lung) was > 25 µM, 26.3 µM, 1.35 µM, the TGI (SK-OV-3 ovarian) was 60.4 µM and 21.7 mM and the TGI (CCRF-CEM leukemia) was > 25 µM, 6.23 µM, 1.8 µM. The TGI (SR leukemia) was 25 µM, 35.2 µM, 3.86 µM, 18.6 mM, the TGI (HOP-92 NSCLC) was > 25 µM, 33.2 µM, 3.83 µM, 23.1 mM and the TGI (HCT-116 colon) was 25 µM, 32.1 µM, 10.1 µM, 12 mM. The TGI (M14 melanoma) was 29.5 µM, 8.51 µM, 21.8 mM, the TGI (SN12C renal) was 14.2 µM, 31.8 µM, 7.14 µM, 19.9 mM and the TGI (COLO 205 colon) was > 25 µM, 3.22 µM, 3.32 µM, 25.2 mM. For the same compound, the TGI (TK-10 renal) was 25 µM, 27.8 µM, 6.27 µM, 17.7 mM, the TGI (K-562 leukemia) was > 25 µM, 24.3 µM, 5.27 µM, 10.6 mM and the TGI (PC-3 prostate) was 14.7 µM and 9.62 mM. For the same compound, the TGI (MDA-MB-231 breast) was 9.83 µM and 25.2 mM, the TGI (OVCAR-4 ovarian) was 23 µM, 8.81 µM, 26 mM and the TGI (HCT-15 colon) was 25 µM, 30.5 µM, 3.34 µM, 22.5 mM. For the same compound, the TGI (OVCAR-3 ovarian) was 31.7 µM and 21.5 mM, the TGI (HOP-62 NSCLC) was 11.7 µM, 36.9 µM, 14.5 mM and the TGI (OVCAR-8 ovarian) was 25 µM, 34.6 µM, 33.4 µM, 23.5 mM. For the same compound, the TGI (DU-145 prostate) was 25 µM and 96.8 mM, the TGI (MALME-3M melanoma) was > 25 µM, 32.8 µM, 4.44 µM, 22.5 mM and the TGI (SNB-75 CNS) was 16.1 µM, 33.8 µM, 38.7 µM, 41.3 mM. The TGI (NCI-H226 lung) was 25 µM, 32 µM, 19.3 mM, the TGI (IGROV1 ovarian) was 10.2 µM, 34.8 µM, 39.1 µM, 12 mM and the TGI (OVCAR-5 ovarian) was 30.4 µM, 30.9 µM, 24 mM. The TGI (LOX IMVI melanoma) was 25 µM, 32.2 µM, 9.17 µM, 23.7 mM, the TGI (HT29 colon) was 25 µM, 35.4 µM, 34.8 µM, 25.6 mM and the TGI (SK-MEL-5 melanoma) was 25 µM, 31.9 µM, 32.6 µM, 80.8 mM. For the same compound, the TGI (SNB-19 CNS) was 17.4 µM, 30.9 µM, 32 µM, 54 mM, the TGI (CAKI-1 renal) was > 25 µM, 3.42 µM, 3.18 µM, 23.3 mM and the TGI (HL-60(TB) leukemia) was > 25 µM, 4.41 µM, 3.06 µM, 23.5 mM. For the same compound, the TGI (786-0 renal) was 11 µM, 29.6 µM, 5.66 µM, 22.7 mM, the TGI (U251 CNS) was 9.44 µM, 34.4 µM, 31.8 µM, 13.6 mM and the TGI (SK-MEL-2 melanoma) was 25 µM, 35.4 µM, 29.9 µM, 7.53 mM.

`CS(=O)(=O)c1ccc(C(=O)Nc2ccc(Cl)c(-c3ccccn3)c2)c(Cl)c1` was tested, and the TGI (SF-295 CNS) was > 100 µM [sample A, mean of 2 tests] and 3.06 µM [sample B, 1 test], the TGI (MDA-MB-435) was > 100 µM [sample A, mean of 2 tests] and 7.72 µM [sample B, 1 test] and the TGI (HCC-2998 colon) was > 100 µM [sample A, mean of 2 tests] and 6.68 µM [sample B, 1 test]. For the same compound, the TGI (UACC-62 melanoma) was > 100 µM [sample A, mean of 2 tests] and 6.4 µM [sample B, 1 test], the GI50 (SW-620 colon) was > 81.3 µM [sample A, mean of 2 tests] and 2.11 µM [sample B, 1 test] and the TGI (UACC-257 melanoma) was > 100 µM [sample A, mean of 2 tests] and 9.96 µM [sample B, 1 test]. For the same compound, the TGI (RXF 393 renal) was > 96.5 µM [sample A, mean of 2 tests] and 2.51 µM [sample B, 1 test], the TGI (BT-549 breast) was > 100 µM [sample A, 1 test] and 8.15 µM [sample B, 1 test] and the TGI (HCT-116 colon) was > 100 µM [sample A, mean of 2 tests] and 9.33 µM [sample B, 1 test]. For the same compound, the TGI (COLO 205 colon) was > 100 µM [sample A, mean of 2 tests] and 4.58 µM [sample B, 1 test], the GI50 (TK-10 renal) was > 79.7 µM [sample A, mean of 2 tests] and 3.94 µM [sample B, 1 test] and the TGI (NCI-H460 lung) was > 100 µM [sample A, mean of 2 tests] and 3.22 µM [sample B, 1 test]. The TGI (OVCAR-3 ovarian) was > 100 µM [sample A, mean of 2 tests] and 6.88 µM [sample B, 1 test], the GI50 (HOP-62 NSCLC) was > 87.9 µM [sample A, mean of 2 tests] and 2.45 µM [sample B, 1 test] and the GI50 (IGROV1 ovarian) was > 80.7 µM [sample A, mean of 2 tests] and 2.43 µM [sample B, 1 test]. For the same compound, the GI50 (OVCAR-5 ovarian) was > 100 µM [sample A, mean of 2 tests] and 2.97 µM [sample B, 1 test], the TGI (HT29 colon) was > 81 µM [sample A, mean of 2 tests] and 4.16 µM [sample B, 1 test] and the TGI (SK-MEL-5 melanoma) was > 100 µM [sample A, mean of 2 tests] and 3.87 µM [sample B, 1 test]. The GI50 (SNB-19 CNS) was > 82.2 µM [sample A, mean of 2 tests] and 3.77 µM [sample B, 1 test], the TGI (CAKI-1 renal) was > 100 µM [sample A, mean of 2 tests] and 5.92 µM [sample B, 1 test] and the TGI (HL-60(TB) leukemia) was > 100 µM [sample A, mean of 2 tests] and 6.87 µM [sample B, 1 test]. For the same compound, the TGI (SK-MEL-2 melanoma) was > 100 µM [sample A, mean of 2 tests] and 6.9 µM [sample B, 1 test].

`COc1cc2cc(C(=O)N3CC(CCl)c4ccc(O)cc43)[nH]c2c(OC)c1OC` (centres undefined) was tested, and the TGI (RPMI-8226 leukemia) was 53.8 nM and > 100 µM, the TGI (HCT-116 colon) was 101 nM and 10.4 µM and the TGI (K-562 leukemia) was 23 nM and 776 nM. The TGI (HOP-62 NSCLC) was 95.6 nM and 15 µM and the TGI (HL-60(TB) leukemia) was 62.4 nM and > 100 µM.
